In PubChem BioAssay AID651820 (National Center for Advancing Translational Sciences (NCATS), 2012):
Screen size: about 340,000 compounds; about 12,000 (3.5%) were called active. This list was built around the results that the source calls inconclusive (neither active nor inactive); the mix of calls is not that of the screen. Calls come from the whole dose curve; as a rule, active = well fitted inhibition curve with a large enough effect; inconclusive = small, poorly fitted or top-dose-only effect, or another doubt; inactive = no such curve, though single readings can be large or run the other way. No potency is given beside an inconclusive call; the fits are too rough.
% is set by controls: 0 for no effect and ±100 for the full control effect; potency is the fitted concentration of half-maximal effect; tags give direction and shape of the fitted curve.

Assay: qHTS Assay for Inhibitors of Hepatitis C Virus (HCV)
Conditions: Huh7.5.1 HCVcc-Cre (HCVcc is cell-culture hepatitis C virus) infection, luciferase reporter, 44 h; activity change, negative = inhibition: at 41.8 µM (top of the series) unless noted
Procedure, shortened: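 Infectious HCV cell culture screen: compound-treated cells (1,000/well, pre-plated 4 h) are infected with HCVcc-Cre at roughly 0.5 moi and grown 44 h. Infection is quantified by luciferase signal after 15 min substrate incubation at room temperature.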
For `CC(C)CCC1(C)NC(=O)N(CC(=O)NCC(=O)Nc2ccc(F)c(F)c2F)C1=O` (configuration not stated), the Potency was inconclusive [inhibitor, partial curve]. With `COc1ccc(S(=O)(=O)Nc2cc3c4c(c2)CC(=O)N4CCC3)cc1C` the Potency was inconclusive [inhibitor, single point]. For `COc1ccccc1NC(=O)c1cc(S(=O)(=O)NCc2ccccc2)ccc1F`, the Potency was inconclusive [inhibitor, single point]. With `Cc1nc2ccc(NC(=O)c3ccc(F)c(S(=O)(=O)N4CCOCC4)c3)cc2s1` the Potency was inconclusive [inhibitor, partial curve]. For `COc1ccccc1NS(=O)(=O)c1cc(C(=O)NCc2ccncc2)ccc1C`, the Potency was inconclusive [inhibitor, single point]. In the case of `CCOc1ccc(NC(=S)Nc2ccc3nsnc3c2)cc1`, the Potency is reported as inconclusive [inhibitor, partial curve]. With `Cc1cc(-c2ccc(C)c(S(=O)(=O)NC(C)Cc3ccco3)c2)on1` (configuration not stated) the Potency was inconclusive [inhibitor, single point]. With `CCN(CC)S(=O)(=O)c1cccc(NC(=O)C(=O)c2c(-c3ccccc3)cc3ccccn23)c1` the Potency was inconclusive [inhibitor, single point]. With `O=C(Nc1ccc(-c2nc3ccccc3s2)c(O)c1)C1=COCCO1` the Potency was inconclusive [inhibitor, partial curve]. For `CCOc1ccc(/C(C)=N/NC(=O)c2nnn(-c3nonc3N)c2-c2cccs2)cc1`, the Potency was inconclusive [inhibitor, partial curve]. In the case of `CC(Sc1nc(N2CCOCC2)c2c(c1C#N)CC(C)(C)OC2)C(=O)Nc1ccccc1` (configuration not stated), the Potency is reported as inconclusive [inhibitor, full curve]. With `CCOc1ccc(N=c2cc(-c3ccc(OC)cc3)oc3ccccc23)cc1` the Potency was inconclusive [inhibitor, single point]. For `CC(C)Cn1c(N)c(C(=O)COC(=O)/C=C/c2cccs2)c(=O)n(C)c1=O`, the Potency was active: 3.98 µM. In the case of `COc1ccc(-c2cc(C(=O)NNC3=NCCC3)c3c(C)nn(-c4ccccc4)c3n2)cc1`, the Potency is reported as inconclusive [inhibitor, partial curve]. For `CS(=O)(=O)c1nc(-c2ccc(F)cc2)cc(C(F)(F)F)n1`, the Potency was active: 6.31 µM. For `COc1cc(OC)c(OC)cc1CNCCc1ccc(OC)c(OC)c1`, the Potency was inconclusive [inhibitor, full curve, poor fit]. In the case of `COc1ccc(Nc2ncnc3scc(-c4ccc(OC)cc4)c23)cc1`, the Potency is reported as active: 6.31 µM. In the case of `O=C(CCC(=O)Nc1ccccc1)NNC(=O)c1cccs1`, the Potency is reported as “inactive”. For `CCN(C(=O)Cn1c(=O)oc2ccccc21)c1cccc(C)c1`, the Potency was “inactive”. With `CCOc1ccc2c(c1)-c1c(ssc1=S)C(C)(C)N2C` the Potency was inconclusive [inhibitor, single point]. For `O=C(N/N=C/c1cccs1)c1cc(-c2ccncc2)nc2ccccc12`, the Potency was inconclusive [inhibitor, single point]. For `C[C@@H]1COC(=O)[C@@H](Cc2ccc(F)cc2)C/C=C\C[C@H](CC(=O)N(CCO)Cc2ccccc2)C(=O)N1`, the Potency was inconclusive [inhibitor, partial curve, poor fit]. For `CC(OC(=O)c1cc(O)c2ccccc2c1O)C(=O)Nc1ccc(C(N)=O)cc1` (configuration not stated), the Potency was inconclusive [inhibitor, single point]. In the case of `O=C(O)c1ccc(-c2ccc(Cl)cc2Cl)o1`, the Potency is reported as “inactive”. In the case of `COC(=O)c1[nH]c2ccc(C)cc2c1NC(=O)CN1CCN(c2ccccc2)CC1`, the Potency is reported as inconclusive [inhibitor, single point]. In the case of `CC(C)N(Cc1ccccc1)CC(O)COc1ccc(S(=O)(=O)N2CCOCC2)cc1Cl` (configuration not stated), the Potency is reported as inconclusive [inhibitor, partial curve]. For `CCOC(=O)c1c(-c2ccc(C)o2)csc1NC(=S)NC(=O)c1cccs1`, the Potency was inconclusive [inhibitor, single point]. In the case of `COc1ccccc1CCC(=O)OCC(=O)Nc1cc(C)nn1-c1ccccc1`, the Potency is reported as “inactive”. For `Oc1cc2c(cc1O)[C@H]1c3ccc(O)c(O)c3OC[C@@]1(O)C2`, the Potency was inconclusive [inhibitor, single point]. In the case of `COc1ccc2[nH]c(=O)c(CN(CC3CCCO3)C(=S)Nc3cccc(C)c3)cc2c1` (configuration not stated), the Potency is reported as inconclusive [inhibitor, partial curve]. For `Cc1ccc(-n2nnnc2SCC(=O)Nc2ccc3c(c2)COC3=O)cc1C`, the Potency was inconclusive [inhibitor, single point]. For `CCOC(=O)[C@H]1[C@H]2COc3ccc(OC)cc3[C@@H]2N2C(=O)c3ccc(Cl)cc3NC(=O)[C@@]12C`, the Potency was inconclusive [inhibitor, single point]. For `N#CC1=C(N)Oc2cc(N)ccc2C1c1ccc(F)cc1F` (configuration not stated), the Potency was inconclusive [inhibitor, single point]. In the case of `COc1ccc(CCNC(=O)CSc2nnnn2-c2ccccc2OC)cc1OC`, the Potency is reported as inconclusive [inhibitor, partial curve]. For `Cc1ccccc1NC(=O)CN1CCN(C)CC1`, the Potency was “inactive”. With `NCCCCCc1nnc(SCC(=O)Nc2cccc(Cl)c2)o1` the Potency was inconclusive [inhibitor, partial curve]. In the case of `CC1(CCc2ccccc2)NC(=O)N(CC(=O)Nc2ccccc2C#N)C1=O` (configuration not stated), the Potency is reported as inconclusive [inhibitor, single point]. For `Cc1cccc(NC(=O)CSc2nnc(Cn3nnc(-c4ccccc4)n3)n2-c2ccccc2)c1`, the Potency was inconclusive [inhibitor, single point]. With `Cc1cccc(-n2[nH]c3c4c(ccc3c2=O)C(=O)c2ccccc2C4=O)c1` the Potency was inconclusive [inhibitor, partial curve]. With `CC(C)(C)c1ccccc1OCCCCCn1ccnc1` the Potency was inconclusive [inhibitor, partial curve]. With `Cc1ccc(NC(=O)C[n+]2cc(-c3ccccc3)n3c2CCC3)cc1` the Potency was inconclusive [inhibitor, single point]. With `COc1ccc(N2CCCC2)c(NC(=O)c2ccc(Br)o2)c1` the Potency was inconclusive [inhibitor, partial curve]. With `CCn1ccnc1CN(C)Cc1cn(-c2ccccc2)nc1-c1ccc(OC)cc1F` the Potency was inconclusive [inhibitor, single point]. In the case of `C=CCn1c(=O)c2ccc(C(=O)NCc3ccccc3)cc2n(Cc2ccc(C)cc2)c1=O`, the activity change, negative = inhibition is reported as inactive: 1.58% [at 8.37 µM]. In the case of `CC1(C)CC(=O)C=C(NC2CCCCCC2)C1`, the Potency is reported as “inactive”. With `CCOc1ccc(NC(=O)CSc2ncn[nH]2)cc1` the Potency was “inactive”. With `O=c1cc(-c2ccccc2)nc2cc(-c3ccco3)[nH]n12` the Potency was “inactive”. With `COc1ccc(S(=O)(=O)N2CCC3(CC2)OCCN3S(=O)(=O)c2cccs2)cc1OC` the Potency was inconclusive [inhibitor, single point]. In the case of `CCOc1ccc(CN(C)CC(=O)Nc2cccc(C)c2)cc1OC`, the Potency is reported as inconclusive [inhibitor, partial curve]. With `Cc1cc2c(N)cccc2nn1` the Potency was inconclusive [inhibitor, single point]. In the case of `CC(C)(C)C(=O)/C=c1\[nH]c(=O)/c(=C\c2ccccc2F)s1`, the Potency is reported as inconclusive [inhibitor, partial curve]. In the case of `COc1cccc(C(=O)OCc2cc(=O)oc3c(C)c(C)ccc23)c1OC`, the Potency is reported as inconclusive [inhibitor, single point]. For `COC(=O)c1nnn(-c2nonc2N)c1CSc1nc2ccccc2o1`, the Potency was inconclusive [inhibitor, single point]. With `CN(c1ccccc1)S(=O)(=O)c1ccc2ccccc2c1` the Potency was inconclusive [inhibitor, single point]. For `O=C1CN(CC(=O)N2CCCCC2)c2ccccc2O1`, the Potency was “inactive”. For `COc1ccc(S(=O)(=O)Nc2ccccc2C(=O)Nc2nc(-c3ccc(F)cc3)cs2)cc1OC`, the Potency was inconclusive [inhibitor, single point]. In the case of `O=S(=O)(c1ccc(-c2n[nH]c(=S)o2)cc1)N1CCCCC1`, the Potency is reported as “inactive”. For `CC(=O)N1CCN(c2ccc(NC(=O)c3ccc([N+](=O)[O-])cc3Cl)cc2)CC1`, the Potency was “inactive”. For `CN(Cc1ccco1)C(=O)Cn1c(=O)oc2cc(S(=O)(=O)NCc3ccccc3)ccc21`, the Potency was “inactive”. In the case of `COCCn1c(=NC(=O)/C=C/c2ccccc2Cl)sc2cc(NC(C)=O)ccc21`, the Potency is reported as inconclusive [inhibitor, full curve, poor fit]. For `O=[N+]([O-])c1cccc(Cl)c1N1CCOCC1`, the Potency was “inactive”. For `COc1ccc(S(=O)(=O)NCC(c2cccnc2)N2CCN(c3ccccc3OC)CC2)cc1C` (configuration not stated), the Potency was inconclusive [inhibitor, partial curve]. With `O=C(Nc1ccc2c(c1)OCCO2)c1cc(-c2ccccc2)nc2ccccc12` the Potency was inconclusive [inhibitor, partial curve]. In the case of `Cc1ccc(NC(=O)C(OC(=O)c2ccc(F)cc2)c2ccccc2)cc1Cl` (configuration not stated), the Potency is reported as “inactive”. With `N/C(=N\c1nc2ccccc2o1)NC(=O)c1ccc(F)cc1` the Potency was “inactive”. For `CCOC(=O)c1c(NC(=O)CN2C(=O)NC3(CCCCC3C)C2=O)sc(C)c1CC` (configuration not stated), the Potency was inconclusive [inhibitor, partial curve]. In the case of `CC1CCc2c(sc(NC(=O)c3ccc(Cn4cc([N+](=O)[O-])cn4)o3)c2C#N)C1` (configuration not stated), the Potency is reported as inconclusive [inhibitor, single point].
